# Data as given in the supplement of paper PMC3334620.
# Whole data set: some 33,000 sequences, median “E-score (-0.5 to 0.5)” near -0.016, cut for the highest 2% near 0.31. This is one part of the list.
# Target: Cst6 (UniProt P40535)
# Assay: PBM E-score (8-mer binding enrichment) (E-score (-0.5 to 0.5)); higher = stronger / more preferred TF binding; most listed sequences are background and not binding sites
# Conditions: protein concentration: 200 nM; construct: GST-DNA-binding domain
# In short: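 PURExpress in vitro transcription/translation supplied GST-tagged yeast transcription factors, either full-length or DNA-binding domain. Applied at about 100-200 nM to universal all-10-mer Agilent arrays double-stranded by primer extension, the bound protein was detected with fluorescent anti-GST. E-scores, modified Wilcoxon-Mann-Whitney statistics, were given by the Universal PBM Analysis Suite to ungapped eight-base words pooled with their reverse complements after masliner normalisation.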
row,Sequence,PBM E-score
1,AAATACGC,0.195
2,ATTCAGCG,0.0604
3,CACCACCC,-0.0343
4,CAACCGCA,-0.129
5,ATGATCTC,0.203
6,CGTACTTA,0.0903
7,AACTTGGG,-0.112
8,GACCGCCA,-0.0766
9,CGTGAGTA,0.0656
10,AAGCTCGC,-0.162
11,AAATAGTC,-0.234
12,GAGAAGGC,-0.166
13,CGAGGTGA,0.211
14,CACTCCCC,-0.195
15,CCATGGGG,-0.191
16,GGAATCTA,0.0645
17,CACTCTGG,-0.0859
18,AGCCAATA,-0.113
19,CGGGAGCA,-0.195
20,CACTTTGC,0.0845
21,GGTGCAGA,-0.257
22,ATGAACCC,-0.022
23,TATGTCCA,-0.056
24,GCAGCAAC,-0.032
25,AAGCTAAC,0.0262

row,Sequence,PBM E-score
1,ATATTGAG,0.143
2,CTCCCTGA,-0.143
3,CACCAAAG,0.132
4,CTACCTGA,-0.0536
5,CCGTCTTC,-0.116
6,AATTGCCT,0.0958
7,AGACCCAT,-0.0534
8,ACGGAGAA,-0.0413
9,ATACATCC,0.0476
10,CAATTTCC,-0.049
11,GATGCAGC,0.0119
12,CAACTAGG,0.0574
13,AGCGCTGG,-0.136
14,AGGCCGAT,-0.106
15,AACTTCCA,-0.178
16,AATCCATT,0.186
17,GAGCTGGA,-0.241
18,GCCAACAC,0.0682
19,GTGCAGTA,-0.148
20,CAATCTTC,0.0992
21,ATCTCGTG,-0.0972
22,ATTCCCCC,-0.245
23,TGGTTTAA,0.173
24,ATACGCAG,-0.101
25,CACGCCCC,-0.204

row,Sequence,PBM E-score
1,ATCACTCC,0.133
2,GATAGCTA,-0.199
3,CGACTGAC,-0.00776
4,GTACCAGA,-0.199
5,CAAATATC,0.2
6,CCCGTACA,-0.222
7,ACGCTTCT,-0.0858
8,ATGGCTTG,-0.155
9,ATTTACTG,0.11
10,AACCTGTG,-0.142
11,AATTGGGA,0.0995
12,TAACGCTA,0.0178
13,AACAATGT,0.056
14,CGATTCGA,0.0945
15,CCGCGCAA,-0.0106
16,AATGCCCC,-0.169
17,ACACTAGT,-0.117
18,GTTTGCAA,0.168
19,AGGTTGTC,-0.233
20,CGACGCTC,-0.00451
21,ATATTTTC,0.193
22,ACGCTGTC,-0.194
23,AAGGCCTC,-0.0458
24,ACTCAAGA,-0.11
25,CTGCACAC,-0.13

row,Sequence,PBM E-score
1,CTGGGCCC,-0.307
2,CTACGAGC,-0.201
3,CCTAGTCG,-0.213
4,AGATAGCG,-0.0262
5,AACGACCG,-0.26
6,AGTAAATA,0.12
7,ATCTCTGC,0.0476
8,GTTCATTA,0.18
9,GTTTAGAA,0.0297
10,CAGTCTTA,0.0306
11,GGCCCGCC,-0.281
12,GAAAATAA,0.204
13,CATTGCTC,-0.0352
14,GAGACCCA,-0.0946
15,ACCAGGTG,-0.0713
16,AACTAAGC,0.0593
17,GAAAACTC,-0.0218
18,ATTCGTTC,0.165
19,ATCTGAGC,-0.0846
20,CTGAGATC,-0.0878
21,AGAAGGAC,-0.272
22,CGAGGCAG,0.0332
23,ATTTCAAC,0.104
24,TCATGCGA,0.0384
25,AAGTTGGG,-0.133

row,Sequence,PBM E-score
1,TACCTCTA,-0.06
2,CTCCGAGA,-0.162
3,ACGACGGA,0.0762
4,CAGGGAGA,-0.227
5,GGAAACTA,-0.122
6,ATTTCGCG,0.156
7,AACTCTGC,-0.123
8,AAAATGCT,0.0838
9,ATCAGTGA,0.136
10,GGAGTTAA,-0.00612
11,CGATGTCC,-0.159
12,CGTGGTCC,0.00953
13,CCTATGAC,0.221
14,AGAAGGTA,0.153
15,AGTTGAGC,-0.109
16,CTGGCGAA,-0.114
17,CCACAGGG,-0.337
18,AAGTCGAG,-0.0841
19,ACGGTCTA,-0.0035
20,ACGTATTG,0.238
21,GCACGGAC,0.0246
22,TGCTTACA,-0.0377
23,CGCGTCTA,0.0834
24,AGCAACAG,-0.0878
25,GCTCCGGA,-0.15

row,Sequence,PBM E-score
1,CACTGTAA,0.123
2,CTGACACA,0.0411
3,ATGTTCAG,-0.0979
4,ACAAGAGT,0.00565
5,ATAAGAAG,0.265
6,GAGGGGGC,-0.345
7,ATACGCCC,-0.169
8,CATTACTA,0.177
9,AGGTTCTA,-0.0425
10,ATCCACGA,-0.0398
11,CAAGCAGC,-0.179
12,CATATTGG,0.0223
13,CGATAGAA,0.0254
14,CTTGGCGC,-0.00157
15,GAAATCAA,0.147
16,CAGTTCGC,-0.0109
17,AATAAAGC,0.156
18,AGGATCGG,-0.275
19,AGACCCGC,-0.0869
20,GATCAGCA,-0.029
21,TAAATCAA,0.181
22,AGACCCCA,-0.105
23,ACCGGAGG,-0.266
24,ATGAGACG,-0.0685
25,TGAGCCCA,-0.238

row,Sequence,PBM E-score
1,ACAGAGGA,-0.00047
2,ACGGATCG,-0.0348
3,TACGCTGA,0.0731
4,AGCACGGC,0.198
5,ACAGGAGT,0.0555
6,GAGTCCCC,-0.444
7,ATCCAATC,0.033
8,ACTTAGAA,-0.073
9,CAGCCTGA,0.0626
10,CCCATAAA,-0.0662
11,ACTTTTAC,0.218
12,GTCAGAGA,0.029
13,TTATGGAA,0.0709
14,ATGCAAAC,0.0481
15,ATTGACGA,0.249
16,GTGGGCTA,-0.0963
17,AGAAGTCG,-0.247
18,CATGTCTA,-0.118
19,ACATGCAT,0.0333
20,CCCACCGG,-0.266
21,GTGGATGA,0.0886
22,CGCCTGTA,-0.197
23,ATCCGGAG,0.001
24,AAACAATG,0.212
25,AATAAATG,0.302

row,Sequence,PBM E-score
1,AATCTTAA,0.0728
2,CGGCGAAA,0.15
3,CGGGCTGA,-0.197
4,AGACTTAA,-0.0892
5,AGAAATAA,0.199
6,AATGGTGA,0.184
7,GCCATAGA,-0.159
8,GAACAGAC,0.0339
9,GTTGGGAA,-0.0904
10,GGGATATA,-0.0165
11,AGCCGGGC,-0.185
12,CGCTCAAC,-0.0529
13,ACATTCGA,-0.0086
14,ATAATAAT,0.238
15,AGCAGGAT,0.0101
16,ACCCCCGC,-0.33
17,GATGCTTA,-0.0146
18,AGTCAACC,-0.219
19,GGCTGCAC,-0.173
20,GGCATTAA,0.11
21,AAGTATCT,0.00244
22,GCGCAGAA,0.177
23,CGTAGGAG,-0.0275
24,ACTGGTCC,-0.251
25,CACGTCAG,0.449

row,Sequence,PBM E-score
1,ATAACTAA,0.174
2,ATGTTTAC,0.161
3,AAACCTTG,0.0686
4,TCCATCAA,0.135
5,GGAGGTGA,0.18
6,AAAGTATT,0.127
7,CGGTGTAA,-0.0925
8,CACGCGCC,0.12
9,GGTATAGA,-0.18
10,GTGGGTAA,-0.135
11,GACAGGCA,-0.115
12,ACTGAAGT,-0.0347
13,ATTCGATC,0.153
14,AGCCCCGA,-0.172
15,ATCATAAG,0.132
16,TAGGCCAA,-0.149
17,GAGCAGGC,-0.245
18,GCTGGCAA,-0.106
19,ATTAGTGC,0.2
